# Assay results published in PubChem BioAssay AID1347073 (National Center for Advancing Translational Sciences (NCATS), 2019).
# The whole screen tested about 45,000 compounds, of which about 200 (0.44%) were called active. Roughly 7% stayed inconclusive and do not appear here. The call rests on the fitted dose curve; in most records, active means well fitted activation curve with a large enough effect; inconclusive means small, poorly fitted or top-dose-only effect; inactive means no such curve, though single readings can be large or run the other way. Some of the results follow.
# Experiment: qHTS of TDP-43 Inhibitors: NCGC Sytravon Library Screen; further: nearly all actives have a fitted effect of over 55% in size; on growth rescue (activation): 0% is about no effect
# Conditions: yeast TDP-43 toxicity rescue, BacTiter-Glo growth, 24 h; series mostly up to 46.1 µM; growth rescue (activation): at the top concentration
# In short: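 TDP-43-expressing yeast, pregrown in raffinose, seeded at OD600 0.02 in galactose medium with compound for 24 hr at 30 deg C. Growth read by BacTiter-Glo luminescence, so rescue of toxicity appears as activation.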
# Potency means the concentration at half of the fitted maximal effect.
Compound,growth rescue (activation),Potency
COc1ccc(OC)c(C(c2c(C)[nH][nH]c2=O)c2c(C)[nH][nH]c2=O)c1,inactive: -34.3%,
COc1cc(/C=N/N2CCCCC2)cc(OC)c1O,inactive: -1.47%,
CN(CC(=O)NCc1ccccn1)S(=O)(=O)c1ccc(Cl)cc1,inactive: 1.56%,
Cc1ccc(S(=O)(=O)NN=C2CCC(C(C)(C)C)CC2)cc1[N+](=O)[O-] (stereo not drawn),inactive: 27.1%,
Cc1oc(C(C)(C)C)cc1C(=O)Nc1cccc(/C=C\C(=O)O)c1,inactive: 3.91%,
O=C(COC(=O)CC1Sc2ccccc2NC1=O)NCc1ccccc1 (stereo not drawn),inactive: -3.75%,
Cc1ccc(NC(=S)Nc2ccc(S(=O)(=O)N3CCOCC3)cc2)cc1S(=O)(=O)N1CCOCC1,inactive: -22.3%,
c1cc2c(cc1-c1[nH]ncc1CN1CC3C[C@@H]4CC1C[C@H](C3)C4)OCO2,inactive: -3.12%,
CC(=O)c1c(C)[nH]c(C(=O)Nc2cccc(S(=O)(=O)N(C)c3ccccc3)c2)c1C,inactive: -11.2%,
Cc1ccc(NC(=O)CN2C(=O)NC3(CCCc4ccccc43)C2=O)c(Cl)c1 (stereo not drawn),inactive: 5.41%,
COc1ccccc1NC(=O)NNC(=O)CN1C(=O)COc2ccccc21,inactive: 3.78%,
COc1ccc(NC(=O)c2cccc3c(-c4cccnc4)coc23)cc1,,active: 10 µM
Cc1ccccc1S(=O)(=O)NC(=O)C1(C)CCN1C(=O)c1c(C)noc1C (stereo not drawn),inactive: 7.79%,
CC(OC(=O)C(NC(=O)c1ccco1)C(C)C)C(=O)Nc1ncc(Cl)cc1Cl (stereo not drawn),inactive: 1.8%,
CC(=O)c1ccc(S(=O)(=O)N(C)CC(=O)NCC2CCCCC2)cc1,inactive: 5.53%,
Cc1ccc(C(=O)NNC(=O)CCC(=O)Nc2cccc(Cl)c2C)cc1,inactive: 16.3%,
Cc1ccc(C(=O)N2CCN(c3ccc(NC(=O)c4cccnc4Cl)cc3)CC2)cc1,inactive: 13.9%,
CCCC(=O)N1CCC1(C)C(=O)NS(=O)(=O)c1ccc(OC)cc1 (stereo not drawn),inactive: -2.79%,
O=C(O)/C=C/C(=O)N(Cc1ccc2c(c1)OCO2)C1CC(=O)N(CCc2ccccc2)C1=O (stereo not drawn),inactive: -13%,
COc1ccc(C2Nc3ccccc3C(=O)N2c2ccccc2)cc1CN1CCOCC1 (stereo not drawn),inactive: 1.97%,
CC(C)(C)c1ccc(-c2nnc(SCC(=O)Nc3sc4c(c3C#N)CCCC4)o2)cc1,inactive: 29.6%,
Oc1ccccc1Nc1ncnc2c1oc1ccccc12,inactive: 1.57%,
O=C(c1ccc(S(=O)(=O)N2CCCC2)cc1)N1CCN(c2ccccc2F)CC1,inactive: -14.4%,
Cc1ccc(S(=O)(=O)N2CCCC(C(=O)N3CCN(c4ccccc4)CC3)C2)cc1 (stereo not drawn),inactive: 7.67%,
CCOC(=O)C1(CCOc2ccccc2)CCN(CCCn2cccn2)CC1,inactive: -9.43%,
CC1CCCCN1S(=O)(=O)c1ccc(N(C(=O)c2cnccn2)C(C(=O)NC2CCCC2)c2cccs2)cc1 (stereo not drawn),inactive: 8.77%,
Cc1cc(C(=O)COc2nncc3ccccc23)c(C)n1C,inactive: -13.1%,

Compound,growth rescue (activation),Potency
CC1(NS(=O)(=O)c2ccc(Cl)s2)CCS(=O)(=O)C1 (stereo not drawn),inactive: -14.9%,
COc1ccc(CC(=O)N/N=C(\C)CC(=O)Nc2ccc(N(C)C)cc2)cc1OC,inactive: -11.9%,
CN(Cc1ccccc1)C(=O)CSc1cc(=O)n(C)c2ccccc12,inactive: 12.8%,
Cc1cccc(C(=O)NCCc2ccc(S(N)(=O)=O)cc2)c1[N+](=O)[O-],inactive: 11.4%,
COc1ccc(C(=O)NC(C)Cn2nc(C)cc2C)cc1OC1CCN(C(C)=O)CC1 (stereo not drawn),inactive: 6.68%,
CCOc1ccc(NC(=O)CCS(=O)(=O)c2ccc3c(c2)n(C)c(=O)c(=O)n3C)cc1,inactive: 11.1%,
O=C(Nc1ccc(NS(=O)(=O)c2ccccc2)cc1)c1cccnc1,inactive: 5.78%,
Cc1cc(NC(=O)c2ccc(Cl)cc2)cc(C)c1OCC(=O)N1CCOCC1,inactive: 8.56%,
O=C(O)COc1ccc2c3c(c(=O)oc2c1)CCCC3,inactive: -7.24%,
Cc1cc(C[n+]2cc(Br)ccc2N)c2ncccc2c1,inactive: -6.17%,
Cc1ccc(SCc2cn3c(C)cc(C)nc3n2)cc1,inactive: 13.1%,
CCCCN(CCCC)CCNC(=O)CSCc1ccc(C)cc1,inactive: -13.7%,
O=C(CSc1cn[nH]n1)Nc1ccccc1F,inactive: -20.4%,
CC(C)OP(=O)(OC(C)C)C(NC(=O)c1ccccc1)C(N)=O (stereo not drawn),inactive: -12.2%,
Cc1ccc(NS(=O)(=O)c2ccc3[nH]c(=O)[nH]c3c2)c(C)c1,inactive: 11.2%,
O=C1CSC(c2ccc(F)cc2)N1c1ccccc1F (stereo not drawn),inactive: -3.86%,
Cc1ccc2c(c1)C1CN(C)CCC1N2C(=O)c1ccccc1NS(=O)(=O)c1ccc(F)cc1C (stereo not drawn),inactive: -20.7%,
Cc1ccc[n+](-c2nc([O-])sc2/C=N/Nc2ccc([N+](=O)[O-])cc2)c1,inactive: 8.78%,
CCC(C)(C)n1nnnc1CN(Cc1cc2cc(OC)c(OC)cc2[nH]c1=O)C1CCCC1,inactive: -4.04%,
COc1ccc(CCN2CC(C(=O)NCc3c(C)n[nH]c3C)CCC2=O)cc1 (stereo not drawn),inactive: -0.59%,
O=C(c1c(F)cccc1Cl)N1CCN(c2ccccn2)CC1,inactive: -1.02%,
CC(=O)NC(c1cccc(F)c1)c1nc(-c2ccoc2)cs1 (stereo not drawn),inactive: -1.82%,
COc1ccccc1Nc1nc(C)c(C(=O)Nc2ccccc2)s1,inactive: 18.9%,
CCOC(=O)CCC(NC(=O)CCCCCCCC(=O)NC(CCC(=O)OCC)C(=O)OCC)C(=O)OCC (stereo not drawn),inactive: 13.7%,
COc1ccc(CCNCC(=O)Nc2ccc(C(=O)N3CCCCC3)cc2)cc1,inactive: -5.33%,
O=C(Nc1ccc2oc(-c3cccnc3)nc2c1)c1ccc2c(c1)OCCO2,inactive: 3.31%,
